From paper PMC4336329 (PLoS ONE, 2015)
Hit rate of the full screen: of about 310,000 compounds, about 2,200 (0.71%) showed an effect of 50% or more. Effects have a minus sign here. The list shows a part of the results.

Molecular target: human ether-à-go-go-related gene (hERG) potassium channel (human, UniProt Q12809)
Assay: primary screen, population patch clamp on CHO cells stably expressing hERG

Chain of human ether-à-go-go-related gene (hERG) potassium channel (Q12809 whole entry, looked up): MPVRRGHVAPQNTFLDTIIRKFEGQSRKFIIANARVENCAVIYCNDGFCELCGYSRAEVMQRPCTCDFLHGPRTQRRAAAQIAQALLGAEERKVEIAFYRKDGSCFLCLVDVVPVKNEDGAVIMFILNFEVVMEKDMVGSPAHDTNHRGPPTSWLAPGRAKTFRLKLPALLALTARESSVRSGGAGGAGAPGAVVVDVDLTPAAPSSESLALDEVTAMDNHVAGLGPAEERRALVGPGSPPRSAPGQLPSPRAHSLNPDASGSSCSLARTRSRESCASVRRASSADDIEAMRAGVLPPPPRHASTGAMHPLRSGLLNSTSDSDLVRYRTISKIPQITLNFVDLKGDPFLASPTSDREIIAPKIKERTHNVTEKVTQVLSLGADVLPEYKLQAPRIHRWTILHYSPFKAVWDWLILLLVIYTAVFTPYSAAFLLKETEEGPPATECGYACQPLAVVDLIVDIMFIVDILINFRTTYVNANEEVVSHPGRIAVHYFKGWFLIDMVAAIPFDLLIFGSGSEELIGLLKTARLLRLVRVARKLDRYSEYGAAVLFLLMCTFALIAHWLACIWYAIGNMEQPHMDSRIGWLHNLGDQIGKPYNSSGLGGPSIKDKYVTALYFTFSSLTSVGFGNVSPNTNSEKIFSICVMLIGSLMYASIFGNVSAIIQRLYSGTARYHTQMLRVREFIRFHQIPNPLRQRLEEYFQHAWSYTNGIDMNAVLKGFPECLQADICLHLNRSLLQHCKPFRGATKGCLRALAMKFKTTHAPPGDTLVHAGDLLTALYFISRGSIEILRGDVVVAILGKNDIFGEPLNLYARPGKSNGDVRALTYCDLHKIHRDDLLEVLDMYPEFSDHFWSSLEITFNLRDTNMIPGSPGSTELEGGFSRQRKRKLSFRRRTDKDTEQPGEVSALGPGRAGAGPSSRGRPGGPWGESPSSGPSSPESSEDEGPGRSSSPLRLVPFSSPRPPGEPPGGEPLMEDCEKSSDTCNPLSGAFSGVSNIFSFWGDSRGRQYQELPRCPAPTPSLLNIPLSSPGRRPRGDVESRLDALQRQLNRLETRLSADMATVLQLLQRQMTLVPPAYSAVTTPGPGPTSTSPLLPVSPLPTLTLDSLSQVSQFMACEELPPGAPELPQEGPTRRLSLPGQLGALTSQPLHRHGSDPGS

**Q.** For `Cc1ccc(NC(=O)c2ccc(NCCCN3CCC(C)CC3)c([N+](=O)[O-])c2)cc1F.Cl`, which “hERG current change (%, negative = inhibition) at 1uM” value is on record?
**A.** Its value is 2.4%.

**Q.** `CC(=O)c1ccc(-n2c(CCC(=O)O)ccc2-c2ccc(Cl)cc2)cc1` was tested. Which “hERG current change (%, negative = inhibition) at 1uM” value did it give?
**A.** Its value is 1.38%.

**Q.** Which “hERG current change (%, negative = inhibition) at 1uM” value does the source give for `Cc1cc(C)cc(NC(=S)N(CCN(C)C)C(C)c2cccnc2)c1` (centres unmarked) here?
**A.** Its value is 2.76%.

**Q.** How did the “hERG current change (%, negative = inhibition) at 1uM” value turn out when `C=CCn1c(N)c(C(=O)Nc2cccc(C)c2)c2nc3ccccc3nc21` was run?
**A.** The value was 22.4%.

**Q.** How did the “hERG current change (%, negative = inhibition) at 1uM” value turn out when `CC(C)CCNC(=O)CCS(=O)(=O)c1cccc2nonc12` was run?
**A.** The value was 15.9%.

**Q.** Which “hERG current change (%, negative = inhibition) at 1uM” value does the source give for `Br.COc1ncnc2c1N=C1CC(C)(C)CC(N)=C1S2` here?
**A.** Its value is 9.87%.

**Q.** Which “hERG current change (%, negative = inhibition) at 1uM” value does the source give for `Cc1ccc(S(=O)(=O)NC(CC(=O)NC2CCCC2)c2ccco2)cc1` (centres unmarked) here?
**A.** Its value is 4.44%.

**Q.** With `COc1ccc(NC2=CC(c3cccc(OC)c3)N(c3ccc(OC)cc3)C2=O)cc1` (centres unmarked) as the compound, how does the “hERG current change (%, negative = inhibition) at 1uM” value read?
**A.** The value was 11.5%.

**Q.** With `Cc1ccc(NS(=O)(=O)c2ccccc2Cl)c2c1CC(C)(C)O2` as the compound, how does the “hERG current change (%, negative = inhibition) at 1uM” value read?
**A.** Its value is 6.77%.

**Q.** How did the “hERG current change (%, negative = inhibition) at 1uM” value turn out when `C/C(=N\NC(=O)c1ccc2c(c1)OCO2)c1ccc(O)cc1` was run?
**A.** Its value is 14.3%.

**Q.** Which “hERG current change (%, negative = inhibition) at 1uM” value does the source give for `CSCCC(NS(=O)(=O)c1ccc(Cl)cc1)C(=O)OCC(=O)NC1CC1` (centres unmarked) here?
**A.** Its value is 3.86%.

**Q.** For `CCOc1ccccc1CN1CCC(O)CC1`, which “hERG current change (%, negative = inhibition) at 1uM” value is on record?
**A.** Its value is 12.7%.

**Q.** With `O=C(CC1SC(=NCc2ccccc2)NC1=O)Nc1ccccc1` (centres unmarked) as the compound, how does the “hERG current change (%, negative = inhibition) at 1uM” value read?
**A.** The value was 8.03%.

**Q.** For `Cc1csc(NC(=O)CNC(=O)OCc2ccccc2)n1`, which “hERG current change (%, negative = inhibition) at 1uM” value is on record?
**A.** The value was 0.305%.

**Q.** `O=[N+]([O-])c1ccc2c(c1)C(c1ccccc1)=NCCN2` was tested. Which “hERG current change (%, negative = inhibition) at 1uM” value did it give?
**A.** The value was -24.9%.

**Q.** For `COc1ccccc1S(=O)(=O)Nc1ccc(S(=O)(=O)Nc2nccs2)cc1`, which “hERG current change (%, negative = inhibition) at 1uM” value is on record?
**A.** Its value is 8.3%.

**Q.** How did the “hERG current change (%, negative = inhibition) at 1uM” value turn out when `Cc1ccc2c(c1)-c1ncc(C(=O)c3cc(Br)ccc3O)cc1CO2` was run?
**A.** Its value is 12.6%.

**Q.** For `CC(C)(C)/C=N/NC(=O)CNC(=O)c1ccc2c(c1)OCCO2`, which “hERG current change (%, negative = inhibition) at 1uM” value is on record?
**A.** The value was 15.4%.

**Q.** `CCCCc1cc2ccccc2c(OCCN(C)C)n1.Cl` was tested. Which “hERG current change (%, negative = inhibition) at 1uM” value did it give?
**A.** The value was 1.3%.

**Q.** For `Cc1oc2cc3oc(=O)c(CCC(=O)NCCC(=O)O)c(C)c3cc2c1C`, which “hERG current change (%, negative = inhibition) at 1uM” value is on record?
**A.** Its value is 17.7%.

**Q.** Which “hERG current change (%, negative = inhibition) at 1uM” value does the source give for `Cc1c(C(=O)Nc2cccc(F)c2)cnn1-c1ccccc1` here?
**A.** The value was 8.93%.

**Q.** For `CCc1ccc(C(C)NC(=O)C2CCCC2)cc1` (centres unmarked), which “hERG current change (%, negative = inhibition) at 1uM” value is on record?
**A.** The value was 16.6%.

**Q.** `O=S1(=O)C=C(Sc2nc3ccccc3s2)c2ccccc21` was tested. Which “hERG current change (%, negative = inhibition) at 1uM” value did it give?
**A.** The value was 9.04%.

**Q.** For `Cc1ccc(-c2nnn(CC(=O)N(Cc3cccs3)C(C(=O)NC(C)(C)C)c3ccc(C)o3)n2)o1` (centres unmarked), which “hERG current change (%, negative = inhibition) at 1uM” value is on record?
**A.** The value was -12.2%.

**Q.** Which “hERG current change (%, negative = inhibition) at 1uM” value does the source give for `S=C(NCCc1ccccc1)NC1CC1` here?
**A.** The value was 19.2%.

**Q.** With `CCOc1ccc(N2C(=O)C3ON(c4ccccc4)C(c4ccco4)C3C2=O)cc1` (centres unmarked) as the compound, how does the “hERG current change (%, negative = inhibition) at 1uM” value read?
**A.** Its value is 4.79%.

**Q.** `CC(C)(C)S(=O)(=O)c1cnc2c(S(=O)(=O)c3ccccc3)cnn2c1N` was tested. Which “hERG current change (%, negative = inhibition) at 1uM” value did it give?
**A.** The value was 9.5%.

**Q.** How did the “hERG current change (%, negative = inhibition) at 1uM” value turn out when `CNc1oc(-c2ccco2)nc1C#N` was run?
**A.** Its value is -11.5%.

**Q.** Which “hERG current change (%, negative = inhibition) at 1uM” value does the source give for `COc1ccc2oc(C(=O)OCc3c(C)noc3C)c(C)c2c1` here?
**A.** The value was 9.99%.

**Q.** Which “hERG current change (%, negative = inhibition) at 1uM” value does the source give for `CC(=O)O/C(=C\c1cn(C(C)=O)c2ccccc12)C(=O)O` here?
**A.** The value was 15.2%.

**Q.** Which “hERG current change (%, negative = inhibition) at 1uM” value does the source give for `Cc1ccc2c(c1)nnn2C1CCN(CC(=O)N2CCN(c3ccc(F)cc3)CC2)CC1` here?
**A.** Its value is -52.5%.

**Q.** How did the “hERG current change (%, negative = inhibition) at 1uM” value turn out when `CCOC(=O)n1ccc(C(=O)Nc2ccccc2F)n1` was run?
**A.** Its value is 5.92%.

**Q.** How did the “hERG current change (%, negative = inhibition) at 1uM” value turn out when `CCOC(=O)NC(NC(=S)Nc1ccccc1OC)C(Cl)(Cl)Cl` (centres unmarked) was run?
**A.** Its value is 16%.

**Q.** `COc1ccc(CN(Cc2ccccn2)C(=O)CN2C(=O)C(C)Oc3ccccc32)cc1` (centres unmarked) was tested. Which “hERG current change (%, negative = inhibition) at 1uM” value did it give?
**A.** The value was 4.34%.

**Q.** `COc1ccc(OCc2nnc(SCC(=O)Nc3cccc(C(C)=O)c3)o2)cc1` was tested. Which “hERG current change (%, negative = inhibition) at 1uM” value did it give?
**A.** The value was 5.32%.

**Q.** `c1ccc(-c2nc3c(ccc4ccccc43)[nH]2)nc1` was tested. Which “hERG current change (%, negative = inhibition) at 1uM” value did it give?
**A.** Its value is 8.12%.

**Q.** For `COc1ccc(Cn2c(=S)[nH]c3cc(C(=O)N4CCCCC4)ccc3c2=O)cc1`, which “hERG current change (%, negative = inhibition) at 1uM” value is on record?
**A.** Its value is 10.3%.

**Q.** How did the “hERG current change (%, negative = inhibition) at 1uM” value turn out when `CC(OC(=O)C1CCN(S(=O)(=O)c2ccc(F)cc2)CC1)C(=O)NC1CCCCC1C` (centres unmarked) was run?
**A.** The value was 12.3%.

**Q.** `CC(C(=O)Nc1ccc(S(N)(=O)=O)cc1)N1CCc2ccccc21` (centres unmarked) was tested. Which “hERG current change (%, negative = inhibition) at 1uM” value did it give?
**A.** Its value is 6.92%.

**Q.** Which “hERG current change (%, negative = inhibition) at 1uM” value does the source give for `CCOC(=O)N1CCN(C(=O)C2CCCN(Cc3nc(-c4ccc(Cl)cc4)oc3C)C2)CC1` (centres unmarked) here?
**A.** Its value is -57.7%.

**Q.** `COC(=O)CC1C(=O)NC2CCCCC2N1C(=O)CCl` (centres unmarked) was tested. Which “hERG current change (%, negative = inhibition) at 1uM” value did it give?
**A.** Its value is 11.5%.

**Q.** How did the “hERG current change (%, negative = inhibition) at 1uM” value turn out when `Cc1cccc(NC(=O)CN2C(=O)N/C(=C/c3ccc(C)s3)C2=O)c1` was run?
**A.** Its value is 10.2%.

**Q.** For `CCN1CCN(CCOc2cccc(Oc3ccccc3)c2)CC1.O=C(O)C(=O)O`, which “hERG current change (%, negative = inhibition) at 1uM” value is on record?
**A.** Its value is -6.32%.

**Q.** With `O=C(NN1CCOCC1)C12CC3CC(CC(C3)C1)C2` as the compound, how does the “hERG current change (%, negative = inhibition) at 1uM” value read?
**A.** The value was 9.37%.
